# From PubChem BioAssay AID1963576 (National Center for Advancing Translational Sciences (NCATS), 2024)
# About 60 (0.1%) of roughly 46,000 compounds were called active. Not shown: some 3% with an inconclusive outcome. Calls come from the whole dose curve; as a rule, active = well fitted inhibition curve with a large enough effect; inconclusive = small, poorly fitted or top-dose-only effect; inactive = no such curve, though single readings can be large or run the other way. Some of the results follow.
# Assay: Primary qHTS assay for Inhibitors of ovarian cancer metastasis using an organotypic tumor microenvironment (TME) model.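 For activity change, negative = inhibition: plate controls were DMSO wells for no effect and tomatine positive control wells for full effect.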 Note: nearly all actives have a fitted effect of over 65% in size.
# Settings: SKOV3ip1-GFP adhesion/invasion on 3D omental model, fluorescence; series mostly up to 45.8 µM; activity change, negative = inhibition: at the top concentration
# Method in brief: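 qHTS, 4-pt dose (0.36-46 umol/L); SKOV3ip1-GFP, 1,200 cells/well, no FBS; primary omental fibroblast/mesothelial co-culture 48 h pre-grown; 2 h RT + 16 h 37 C; PBS wash, 4% PFA; GFP count 488/509 nm.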
Compound,"activity change, negative = inhibition",outcome,Potency
CC(C)CN(C(=O)c1cccc(S(=O)(=O)N2CCCCC2)c1)C1CCS(=O)(=O)C1 (stereo not given),inactive: -6.75%,,
O=C(O)c1ccc(CNCc2ccc(Cl)cc2)s1,,inactive,
COc1ccc([C@@H]2CC(=O)c3c(O)cc(O[C@@H]4O[C@H](CO[C@@H]5O[C@@H](C)[C@H](O)[C@@H](O)[C@@H]5O)[C@@H](O)[C@H](O)[C@@H]4O)cc3O2)cc1O,,,inactive
CCOC(=O)c1ccc(N2CCN(c3cccc(OC)c3)CC2)c(NC(=O)Nc2ccc(OCC)cc2)c1,inactive: 13.4%,,
CCOC(=O)c1c(NC(=O)c2nc(SCC)ncc2Cl)sc(C(C)=O)c1C,inactive: -9.61%,,
Cc1ccc(CNC(=O)Cc2c(C)c3cc4c(C)coc4cc3oc2=O)cc1,inactive: 0.543%,,
O=C(COc1ccccc1Cl)OCc1cc(=O)n2nc(-c3cccs3)sc2n1,inactive: 2.23%,,
O=[N+]([O-])c1cc(-c2nc(-c3ccccc3)no2)ccc1N1CCCCC1,inactive: -10.9%,,
Cc1ccc(NC(=O)C2CCCN(c3nnc(C)c4c(C)n(-c5ccccc5)nc34)C2)c(Cl)c1 (stereo not given),inactive: 2.35%,,
CCC(=O)N1CCc2cc(Br)cc(S(=O)(=O)CCC(=O)N3CCN(c4cccc(C(F)(F)F)c4)CC3)c21,inactive: -0.0768%,,
COc1ccc(C(=O)OCc2cc(=O)n3nc(-c4cccs4)sc3n2)cc1,inactive: -1.07%,,
CCC(Cn1nnc2ccccc2c1=O)NC(=O)Nc1cccc(C)c1C (stereo not given),inactive: -8.68%,,
Cc1ccc(S(=O)(=O)Cc2ccc(C(=O)N3CCN(c4cccc(C)c4C)CC3)o2)cc1,inactive: 11.2%,,
O=C(Cn1c(=O)n(Cc2ccco2)c(=O)c2ccccc21)Nc1ccc(Cl)cc1Cl,inactive: -10.7%,,
CC1=C(C(=O)Nc2ccccc2)C(c2ccncc2)n2nc(SCc3ccccc3Cl)nc2N1 (stereo not given),,inactive,
CCOC(=O)c1cc(S(=O)(=O)NCc2ccccc2)[nH]n1,inactive: -33.7%,,
O=C(Cn1c(=O)ccc2cc(S(=O)(=O)N3CCCC3)ccc21)NCc1ccc(Cl)cc1,,inactive,
COc1cc(-c2noc(-c3ccc(N4CCN(C)CC4)c([N+](=O)[O-])c3)n2)cc(OC)c1OC,,inactive,
CCN(CC)S(=O)(=O)c1ccc2nc(NC(=O)c3cccnc3)sc2c1,inactive: -0.0689%,,
O=C(c1ccc(Cl)cc1)N1CCC(c2ccncc2)CC1,inactive: 20.8%,,
CCC[C@H]1C[C@H](C(=O)N[C@@H]([C@@H]2O[C@@H](SC)[C@@H](O)[C@@H](O)[C@@H]2O)[C@H](C)Cl)N(C)C1,inactive: 12.3%,,
CC(C)(C)c1ccc(S(=O)(=O)NCc2ccc3c(c2)CCN3C(=O)c2ccccc2)cc1,inactive: -7.97%,,
CCC(CO)NC(=O)C(=O)Nc1c2c(nn1-c1ccc(F)cc1)CSC2 (stereo not given),inactive: 13.4%,,

Compound,"activity change, negative = inhibition",outcome,Potency
Cc1cc(Nc2ccc(C)c(Cl)c2)n2nc(Cc3ccccc3)nc2n1,,inactive,
COc1ccccc1CNS(=O)(=O)c1c(C)nc2scc(C)n2c1=O,,inactive,
CCN(c1ncnc2c1cnn2-c1ccc(C)cc1)C1CCCCC1,inactive: 3.29%,,
CCOc1ccc(CCNC(=O)CCc2cn(Cc3ccccc3F)c3ccccc23)cc1OCC,inactive: -18.4%,,
CCOC(=O)c1cccc(NC(=O)c2cc3sccc3n2Cc2ccc(Cl)cc2)c1,inactive: 56.9%,,
CCOc1ccc(NC(=O)CSc2nc(-c3ccc(OC)cc3)nc3c2Cc2c(CO)cnc(C)c2O3)cc1,inactive: 1.04%,,
COCCn1c(=O)[nH]c2cc(C(=O)NCc3ccccc3Cl)ccc2c1=O,inactive: -18.6%,,
CCOc1ccc(NC(=O)c2c(Nc3ccc(OC)cc3OC)sc(C(=O)c3ccc(Cl)cc3)c2N)cc1,,inactive,
CC1CCCCN1c1csc2ccc(F)cc2c1=O (stereo not given),inactive: -0.557%,,
Cn1nc(C(=O)Nc2cc(F)ccc2F)c2c1-c1ccccc1SC2,,inactive,
COc1ccccc1N1CCN(C(=O)CCc2c(C)nn(-c3ccc(N4CCCC4)nn3)c2C)CC1,inactive: 17.9%,,
CCn1cc(-c2ccnc3[nH]c(-c4cccc(CN(C)C)c4)cc23)c(-c2ccc(NC(=O)N(C)C)cc2)n1,inactive: 1.43%,,
Cc1cccc(-c2nc(SCc3ccc(Br)cc3)n3[nH]c(=O)cc3n2)c1,,inactive,
CCOC(=O)c1cnn(-c2ccc(OC)cc2)c1C1CCN(C(=O)OC(C)(C)C)CC1,,inactive,
COC(=O)c1ccc(NC(=O)CCc2c(C)nn(-c3ccc(N4CCCC4)nn3)c2C)cc1,,inactive,
CCOc1ccn(-c2ccc(F)cc2)c(=O)c1C(=O)Nc1ccc(Oc2ccnc(N)c2Cl)c(F)c1,inactive: 6.73%,,
CSc1nc2sc3c(c2c(=O)n1-c1ccc(C)c(Cl)c1)CCN(C(C)=O)C3,inactive: -3.76%,,
COc1cc(C(=O)N(Cc2ccc(C(C)C)cc2)C2CCS(=O)(=O)C2)cc(OC)c1OC (stereo not given),inactive: -3.33%,,
COC(=O)c1ccc(NC(=O)CSc2nc(=O)n(Cc3ccco3)c3c2CCC3)cc1,inactive: -5.73%,,
CCOc1ccc(CCNC(=O)c2ccc3c(c2)c(C)c(C)n3C)cc1,inactive: 2.51%,,
Cc1ccccc1C(=O)N1CCC(c2nc3ccccc3s2)CC1,inactive: 2.21%,,
Cc1nc(Nc2n[nH]c3c2CN(C(=O)N[C@H](CN(C)C)c2ccccc2)C3(C)C)c2sccc2n1,inactive: 30.2%,,
